Measured values reported in patent US9803019B2, “Carrier immunoglobulins and uses thereof” (Amgen Inc., priority 2010, dated 2017).

Key:
[1] = Rat PK, single SC dose (Example 4); assay type: in vivo, Sprague-Dawley rats; conditions: 5 mg/kg subcutaneously
Method: Serum concentrations were then determined using an anti-human Fc based ELISA.
The pharmacokinetic profile of the 16435, 16444, 4241, and 4341 carrier antibodies was determined in adult Sprague-Dawley rats (8-12 weeks old) by injecting 5 mg/kg subcutaneously and collecting approximately 250 μL of blood in Microtainer® serum separator tubes at 0, 0.25, 1, 4, 24, 48, 72, 96, 168, 336, 504, 672, 840 and 1008 hours post-dose from the lateral tail vein. Each sample was maintained at room temperature following collection, and following a 30-40 minute clotting period, samples were centrifuged at 2-8° C. at 11,500 rpm for about 10 minutes using a calibrated Eppendorf 5417R Centrifuge System (Brinkmann Instruments, Inc., Westbury, N.Y.). The collected serum was then transferred into a pre-labeled (for each rat), cryogenic storage tube and stored at −60° C. to −80° C. for future analysis. To measure the serum sample concentrations from the PK study samples, the following method was used: ½ area black plate (Corning 3694) was coated with 2 μg/ml of anti-hu Fc, antibody 1.35.1 in PBS and then incubated overnight at 4° C. The plate was then washed and blocked with I-Block™ (Applied Biosystems) overnight at 4° C. […] The plate was washed, then 50 μl of Pico substrate were added, after which the plate was immediately analyzed with a luminometer.

[2] = Thermoresistance by DSC (MicroCal VP-DSC); assay type: physicochemical; conditions: 0.5 mg/ml in 10 mM sodium acetate, 9% sucrose, pH 5.0; 20° C. to 95° C. at 1° C. per minute
Method: The protein concentration was 0.5 mg/ml in 10 mM sodium acetate, 9% sucrose, pH 5.0.
Antibodies were also analyzed for thermoresistance by DSC using a MicroCal VP-DSC where the samples were heated from 20° C. to 95° C. at a rate of 1° C. per minute. DSC directly measures heat changes that occur in biomolecules during controlled increase or decrease in temperature, making it possible to study materials in their native state.
DSC measures the enthalpy (ΔH) of unfolding due to heat denaturation. A biomolecule in solution is in equilibrium between the native (folded) conformation and its denatured (unfolded) state. […] DSC is also used to determine the change in heat capacity (ΔCp) of denaturation (see, FIG. 11). The proteins were incubated at 0.5 mg/ml in 10 mM sodium acetate, 9% sucrose, pH 5.0 (FIG. 11).
The antibodies were analyzed for thermoresistance by DSC using a MicroCal VP-DSC where the samples were heated from 20° C. to 95° C. at a rate of 1° C. per minute. The proteins were at 0.5 mg/ml in 10 mM sodium acetate, 9% sucrose, pH 5.0 (FIG. 28).

[3] = Light sensitivity: 3 days fluorescent light vs dark, SEC / HIC analysis; assay type: physicochemical; conditions: 3 days at room temperature, ambient fluorescent light vs aluminum foil
Method: Samples were eluted at 0.8 ml/min with a 0-100% linear gradient over 50 minutes observing the absorbance at 220 nm.
To measure the light sensitivity of the antibodies, they were incubated in ambient lab fluorescent lighting or covered in aluminum foil for 3 days at room temperature. Light exposed and dark control antibodies were then analyzed using two size exclusion columns (TSK-GEL G3000SWXL, 5 mm particle size, 7.8×300 mm, TosohBioscience, 08541) in series with a 100 mM sodium phosphate, 250 mM NaCl, pH 6.8, mobile phase flowed at 0.5 mL/min. […] The antibodies were then analyzed by hydrophobic interaction chromatography (HIC) using two Dionex ProPac HIC-10 columns in series with mobile phase A being 1 M ammonium sulfate, 20 mM sodium acetate, pH 5.0 and mobile phase B being 20 mM sodium acetate, 5% acetonitrile, pH 5.0. Samples were eluted at 0.8 ml/min with a 0-100% linear gradient over 50 minutes observing the absorbance at 220 nm.
To measure the light sensitivity of the antibodies, they were incubated in ambient lab fluorescent lighting or covered in aluminum foil for 3 days at room temperature. The antibodies were then analyzed by hydrophobic interaction chromatography using two Dionex ProPac HIC-10 columns in series with mobile phase A being 1 M ammonium sulfate, 20 mM sodium acetate, pH 5.0 and mobile phase B being 20 mM sodium acetate, 5% acetonitrile, pH 5.0. […]

Colo205 cells = test: Colo205 cell based caspase-3/7 apoptosis assay; parameters: species or system human; conditions: Colo205, relative luminescence (FIG. 20C)
Method: Samples of antibodies 4241 and 4341 were compared with positive control IgG1 anti-TR2 mAb 16449. The prepared antibody samples were added to TRAIL-sensitive human ascites colorectal adenocarcinoma cell line Colo205. The detection of TRAIL-mediated caspase-3 activation by measuring an increase in relative luminescence was used as a positive marker for apoptosis.
Colo205 is a human colon carcinoma cell line that is sensitive to the presence of TRAIL. […] A Colo205 based cell assay was developed to verify the cell killing efficacy of antibodies. The in vitro biological activity of the Antibody 16449 (anti-TRAIL-R2 antibody) is analyzed by its ability to induce apoptosis in human ascites colorectal adenocarcinoma cell line Colo205. The detection of caspase-3 activation is used as a positive marker for apoptosis, using the Apo-One™ Homogeneous Caspase™-3/7 assay kit (PromegaCorporation, Madison, Wis.), according to the manufacturer's instruction. (see, Niles et al., The Apo-One™. Homogeneous Caspase™-3/7 assay: a simplified “solution” for apoptosis detection, Cell Notes 2:2-3 (2001)). […] Luminescence produced is proportional to the amount of caspase activity present. The luminescence of each sample is measured in a plate-reading luminometer. Biological activity of the test sample is determined by comparing test sample response to Reference Standard response. […]

B1: 4241 (antibody)
heavy: QVQLQESGPGLVKPSQTLSLTCTVSGGSISSGDYFWSWIRQLPGKGLEWIGHIHNSGTTYYNPSLKSRVTISVDTSKKQFSLRLSSVTAADTAVYYCARDRGGDYEYGMDVWGQGTTVTVSSASTKGPSVFPLAPSSKSTSGGTAALGCLVKDYFPEPVTVSWNSGALTSGVHTFPAVLQSSGLYSLSSVVTVPSSSLGTQTYICNVNHKPSNTKVDKRV[here human IgG1 Fc without letters]
light: EIVLTQSPGTLSLSPGERATLSCRASQGISRSALAWYQQKPGQAPSLLIYGASSRATGIPDRFSGSGSGTDFTLTISRLEPEDFAVYYCQQFGSSPWTFGQGTKVEIKRTVAAPSVFIFPPSDEQLKSGTASVVCLLNNFYPREAKVQWKVDNALQSGNSQESVTEQDSKDSTYSLSSTLTLSKADYEKHKVYACEVTHQGLSSPVTKSFNRGEC
AUC0-t±SD [1]: 24,045±2,480 μg/h/mL
DSC melting profile [2]: most desirable melting profile, with a higher temperature for the secondary transition
light sensitivity (HIC chromatograms with and without light exposure) [3]: neither antibody displayed significant differences
caspase-3 activation (Colo205 cells): failed to activate caspase-3
